From the supplement of paper PMC3334620
In all, about 33,000 sequences were measured (“E-score (-0.5 to 0.5)”: median about -0.054, highest 2% from about 0.39 on). Some of the results follow.

Target: Ylr278c (UniProt Q05854)
Test: PBM E-score (8-mer binding enrichment) (E-score (-0.5 to 0.5)); higher = stronger / more preferred TF binding; most listed sequences are background and not binding sites
Conditions: protein concentration: 200 nM; construct: GST-DNA-binding domain
In short: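 PURExpress in vitro transcription/translation supplied GST-tagged yeast transcription factors, either full-length or DNA-binding domain. Applied at about 100-200 nM to universal all-10-mer Agilent arrays double-stranded by primer extension, the bound protein was detected with fluorescent anti-GST. E-scores, modified Wilcoxon-Mann-Whitney statistics, were given by the Universal PBM Analysis Suite to ungapped eight-base words pooled with their reverse complements after masliner normalisation.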

Going from AGCGCACG to AGAGGATG, the “PBM E-score” value falls from 0.0656 to -0.0287.

Compared with AACACAGG, ACCTCACG is lower in “PBM E-score” value: -0.137 for the first, -0.195 for the second.

First: CTAATGCC
Second: GGTATCGA
The “PBM E-score” value of the first is higher: 0.126 for the first, -0.0372 for the second.

First: CGTGAACC
Second: AGTTCGAA
The “PBM E-score” value of the first is higher: 0.0242 for the first, 0.0146 for the second.

First: CTTCGGTA
Second: GCCTCTTA
The “PBM E-score” value of the first is higher: 0.0846 for the first, -0.109 for the second.

Compared with GTAACAAA, CACTGACC is higher in “PBM E-score” value: 0.00209 for the first, 0.0158 for the second.

Compared with CTCTCAAC, CGATTACC is higher in “PBM E-score” value: -0.0992 for the first, 0.133 for the second.

Compared with AGGCTAAG, AGACAAAT is higher in “PBM E-score” value: -0.206 for the first, -0.121 for the second.

First: CTTCGCTA
Second: TCAGAGAA
The “PBM E-score” value of the first is higher: -0.0775 for the first, -0.257 for the second.

First: ACCGTATC
Second: CATATAAG
The “PBM E-score” value of the first is higher: 0.124 for the first, -0.156 for the second.

Compared with CTTCATAA, CCACTAGG is lower in “PBM E-score” value: -0.0885 for the first, -0.292 for the second.

First: AATACCGC
Second: ACTTCCAT
The “PBM E-score” value of the first is higher: 0.268 for the first, 0.135 for the second.

Going from GGGTCCTA to CATTGACC, the “PBM E-score” value rises from -0.0538 to -0.0145.

First: CGACAACA
Second: ATTTTCCA
The “PBM E-score” value of the first is lower: -0.00857 for the first, 0.0304 for the second.

Compared with GGTCGCAC, GAGCTACC is lower in “PBM E-score” value: -0.0112 for the first, -0.0733 for the second.

First: GCTGTGCC
Second: CCAATAAG
The “PBM E-score” value of the first is higher: 0.014 for the first, -0.191 for the second.

Compared with TGCCCGAA, GAGAAGCC is higher in “PBM E-score” value: 0.00494 for the first, 0.132 for the second.

First: ACGCCTTA
Second: GTATCCGA
The “PBM E-score” value of the first is lower: -0.184 for the first, 0.291 for the second.

First: CCACGGAA
Second: GAAGTCGC
The “PBM E-score” value of the first is higher: 0.34 for the first, -0.0286 for the second.

Going from ATGGGGCC to AACAGAGA, the “PBM E-score” value rises from -0.172 to -0.0134.

Going from CTATGTTC to CAATGAAG, the “PBM E-score” value falls from -0.00542 to -0.173.

Compared with AATAGTAT, CCATCAAC is lower in “PBM E-score” value: 0.0535 for the first, -0.198 for the second.

Going from GCCAGCGA to AGACCACT, the “PBM E-score” value rises from -0.266 to -0.0955.

Compared with AATAAGTC, AACGGTTA is higher in “PBM E-score” value: -0.164 for the first, -0.112 for the second.

First: AACTTATT
Second: ACACTAGC
The “PBM E-score” value of the first is higher: 0.107 for the first, -0.183 for the second.

First: AACTGTAG
Second: AAGTATCC
The “PBM E-score” value of the first is lower: -0.24 for the first, -0.0705 for the second.

Compared with CGGACACG, AAATACAA is lower in “PBM E-score” value: 0.306 for the first, 0.00888 for the second.

Going from CGGGGGTC to CACTTCGC, the “PBM E-score” value falls from 0.256 to -0.169.

Going from GCCTGTAC to CCGGCTCG, the “PBM E-score” value rises from -0.0696 to 0.304.

Going from CGACGAGA to GGGAACCC, the “PBM E-score” value rises from 0.0179 to 0.124.

Going from CATGAAAA to TACATCAA, the “PBM E-score” value rises from -0.161 to -0.14.

Going from AGATTTGG to CCGACTCG, the “PBM E-score” value rises from -0.127 to 0.224.

First: CACAACCA
Second: GAGTGGGC
The “PBM E-score” value of the first is higher: 0.0195 for the first, -0.0288 for the second.

Compared with AATTCTGC, AAGCGGCG is higher in “PBM E-score” value: 0.0901 for the first, 0.222 for the second.

Going from AACACTGA to GCAGAGCC, the “PBM E-score” value falls from -0.0662 to -0.128.

Compared with CTATTGCC, AACTCATC is higher in “PBM E-score” value: -0.0226 for the first, 0.054 for the second.

First: GGGCTAAC
Second: CGGCGTGC
The “PBM E-score” value of the first is lower: -0.163 for the first, 0.246 for the second.

Compared with AACGGAAG, CCGTTCAA is higher in “PBM E-score” value: 0.0937 for the first, 0.189 for the second.

Compared with GTAATCCA, AGAATCAA is lower in “PBM E-score” value: 0.103 for the first, -0.031 for the second.

First: CCGAAACC
Second: ACTCCATG
The “PBM E-score” value of the first is higher: 0.241 for the first, 0.0943 for the second.

Compared with CACGCTAG, GTGCTACA is lower in “PBM E-score” value: -0.166 for the first, -0.282 for the second.

Going from GGATCCCC to CATCTGCA, the “PBM E-score” value falls from 0.33 to -0.0913.

First: CTTGGCCC
Second: GTTGCCCA
The “PBM E-score” value of the first is lower: -0.197 for the first, -0.0193 for the second.

First: AGCTTGTG
Second: TTCGAAAA
The “PBM E-score” value of the first is lower: -0.25 for the first, 0.0013 for the second.

First: TAGCAGAA
Second: ATTTAGCA
The “PBM E-score” value of the first is higher: -0.0598 for the first, -0.154 for the second.

Going from AGGATGAG to ACGTGGAA, the “PBM E-score” value rises from -0.265 to 0.00293.

Going from AGGGAGAC to CCTCTGGC, the “PBM E-score” value falls from -0.0299 to -0.0747.

Compared with ATACTCCC, AAGTAGTA is lower in “PBM E-score” value: 0.243 for the first, -0.204 for the second.

Going from CGCGAATC to ACCAAGAA, the “PBM E-score” value falls from 0.0146 to -0.00132.

First: CACTCACC
Second: AAGGCTCT
The “PBM E-score” value of the first is higher: -0.124 for the first, -0.214 for the second.

First: AGTCCCCC
Second: AGAAGAAT
The “PBM E-score” value of the first is lower: -0.261 for the first, 0.00676 for the second.

Going from ATGTCCCC to ATTACTTC, the “PBM E-score” value falls from 0.042 to -0.0841.

Going from CCTTTGGA to CTTATATC, the “PBM E-score” value rises from -0.189 to 0.00366.

Compared with AGGATAGA, AGATCCCC is higher in “PBM E-score” value: -0.124 for the first, 0.162 for the second.

Compared with CCTAATCA, CTCTTAAA is higher in “PBM E-score” value: -0.0371 for the first, 0.0697 for the second.

Going from AGTCTCGG to ATGGCATA, the “PBM E-score” value falls from 0.223 to -0.202.

Compared with AGCCCATG, CGACTATA is higher in “PBM E-score” value: -0.131 for the first, -0.0135 for the second.

Compared with CTATCCAC, AGCCCTAA is higher in “PBM E-score” value: -0.0748 for the first, -0.0219 for the second.

Going from ACACACGA to ACTGGATC, the “PBM E-score” value rises from -0.0369 to -0.0196.

ATACTGCA and CGCCACTC are the same in “PBM E-score” value: 0.114 for the first, 0.114 for the second.

Compared with CAGATCAG, AAAGCGCC is higher in “PBM E-score” value: -0.13 for the first, 0.0702 for the second.

Going from CGTTCCTA to AAATGAAT, the “PBM E-score” value rises from -0.108 to -0.0825.

Going from AGATAATA to AGAGAAAT, the “PBM E-score” value rises from -0.121 to -0.0493.

Compared with AAACGTGG, GAGGTGCA is higher in “PBM E-score” value: -0.234 for the first, 0.13 for the second.

Compared with ACCATGAT, CTAGTCAA is lower in “PBM E-score” value: -0.11 for the first, -0.149 for the second.

First: GGGTAGAC
Second: CGGCCAAG
The “PBM E-score” value of the first is lower: -0.0811 for the first, 0.204 for the second.

Going from TTGGCAAA to CTCTTGCA, the “PBM E-score” value falls from -0.108 to -0.255.

Compared with TAATGGCA, ATCTCACC is higher in “PBM E-score” value: -0.163 for the first, 0.0654 for the second.

Compared with ACCTTGAC, ACATCCTC is higher in “PBM E-score” value: -0.12 for the first, 0.0598 for the second.

First: CGCTCGCC
Second: CTCCGCGA
The “PBM E-score” value of the first is lower: 0.168 for the first, 0.403 for the second.

First: AGTCTCCA
Second: GCTCAAGA
The “PBM E-score” value of the first is lower: -0.312 for the first, -0.18 for the second.

First: CTGTATTC
Second: GGTGTGTA
The “PBM E-score” value of the first is higher: 0.133 for the first, -0.176 for the second.

Going from CCGAATCC to CCGATGAG, the “PBM E-score” value falls from 0.341 to 0.258.

First: CCATTGCC
Second: ACGCTAAT
The “PBM E-score” value of the first is lower: 0.0262 for the first, 0.105 for the second.

First: CAGGACGG
Second: ATCTCAAT
The “PBM E-score” value of the first is higher: -0.00316 for the first, -0.0596 for the second.

Going from ACAGTGCT to ATTTAAAC, the “PBM E-score” value rises from -0.163 to -0.0196.

Going from AGTCACTG to CTCCTTAA, the “PBM E-score” value rises from -0.227 to 0.0108.

Compared with GGCTGGAC, ACGAACTC is higher in “PBM E-score” value: -0.177 for the first, 0.0871 for the second.

Compared with ATATGTCG, TAACCTTA is lower in “PBM E-score” value: -0.00558 for the first, -0.161 for the second.

First: AATATACA
Second: CGTGTTCA
The “PBM E-score” value of the first is higher: -0.0821 for the first, -0.173 for the second.

Going from GGTGGTGA to GGACGGTA, the “PBM E-score” value falls from 0.0539 to 0.0532.

Compared with AGGACGAT, AGGAACCG is higher in “PBM E-score” value: -0.165 for the first, 0.171 for the second.

Going from CACGCGAC to CGCGCATA, the “PBM E-score” value rises from -0.0553 to 0.113.

Compared with ATCGGAAT, CCTCTGGA is lower in “PBM E-score” value: 0.443 for the first, -0.0492 for the second.

First: ACATAAGG
Second: GCCTGTCA
The “PBM E-score” value of the first is higher: 0.0479 for the first, -0.159 for the second.

Going from AACTGACG to CCGTTCGC, the “PBM E-score” value rises from -0.0953 to 0.0601.
